# Data reported in article PMC6212790.
# The list shows a part of the results. At the low end of the ranking the order means little.
# Target: T1, GST-Rok-C97-191 (UniProt O34857)
# T1 sequence: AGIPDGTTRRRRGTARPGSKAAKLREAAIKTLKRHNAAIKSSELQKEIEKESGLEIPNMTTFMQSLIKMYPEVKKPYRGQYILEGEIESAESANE
# Assay: protein binding microarray;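 further: rank score from −0.5 (least bound) to 0.5 (best bound)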
# Settings: Rok is a gene silencer of Bacillus subtilis; high values mean tight binding; most listed sequences are background and not binding sites; double strand, one strand shown
row,Sequence,binding signal [E-score]
1,CGTACGCC,-0.0607
2,GATTGAGA,0.0238
3,AACAACAT,0.0111
4,ATGTCTGG,-0.172
5,CGCCCTCA,-0.284
6,AATTACTA,0.43
7,CCCTCGGC,-0.322
8,GGGCCTCA,-0.247
9,AGATCATA,0.191
10,ATTTAAGA,0.0208
11,AGAACCTC,-0.0956
12,GGTTTGAC,-0.0128
13,AAGTTGAC,0.0588
14,AGACCTTC,-0.162
15,CGGCATCC,-0.204
16,CGCCTCTA,-0.151
17,AAGGTGTG,-0.228
18,CCCGGCCC,-0.25
19,GGCTCATA,-0.312
20,GGTGCGAC,-0.322
21,CGGAAAAA,-0.0398
22,TCATCCCA,0.0171

row,Sequence,binding signal [E-score]
1,ACCAGGCA,-0.261
2,CTACTAGA,0.293
3,ACTGTTTA,0.0965
4,ATCGCAGG,-0.154
5,CAAAAGTC,-0.0954
6,CGACCTCG,-0.15
7,CCATGAAG,-0.227
8,CGGGCAGC,-0.206
9,ACACGAAG,-0.182
10,CTAAACGC,0.0606
11,CTAATTTC,0.272
12,ACCCTGTC,-0.134
13,CTACATTC,0.0945
14,GAGCTAAC,-0.107
15,CTTTGCGA,-0.146
16,GATGCACC,-0.0545
17,AAAGGATC,-0.12
18,AGATCCGG,0.0519
19,AGCTGCTA,-0.0493
20,AAACAAGT,-0.0443
21,CGCCTAAC,-0.238
22,AAAAAATC,-0.0656

row,Sequence,binding signal [E-score]
1,ACATCAGC,0.0927
2,AGGAAACA,-0.0302
3,CAGATGAG,-0.23
4,CGATCGCG,0.0105
5,GAGGCAAC,-0.0906
6,CGCCGCGC,-0.215
7,CGGAGAGC,-0.239
8,ATAAAAGG,0.077
9,GCGACGTA,0.0763
10,ACTGGAGG,-0.26
11,AGCTGTAT,0.164
12,CGTGAAGA,-0.0889
13,GTCGTTTA,0.12
14,GCCGTAGC,-0.0991
15,ATCGCCGG,-0.0173
16,CCGCAACA,0.0431
17,TATCTCCA,0.177
18,CCAATCCC,-0.245
19,CATGGGGC,-0.233
20,TGACGTCA,0.00314
21,GAATAGGA,0.0339
22,ACGAAGGA,0.088

row,Sequence,binding signal [E-score]
1,ACTAGCGC,0.131
2,ACTATTTG,0.22
3,TCTTTGCA,0.123
4,CTGGAAAG,-0.0873
5,CCCCGAGA,-0.324
6,GCTTCCGA,-0.0867
7,GTTAATTA,0.19
8,GATGCTGC,0.0556
9,ATTTACCC,0.222
10,ACGACACA,-0.0337
11,ACAAAACG,-0.11
12,AAAGTATT,0.191
13,CTCCGCAC,0.0348
14,GTATCCTA,0.14
15,ACTCCCCT,-0.344
16,ACCAGGAC,-0.0513
17,AACGGGGA,-0.0679
18,ACCCGGTG,-0.277
19,ACTCGGTC,-0.0494
20,GACATGAA,0.133
21,AACTTTTC,0.037
22,ACAAAGAC,0.0962

row,Sequence,binding signal [E-score]
1,CGTGCAGA,-0.162
2,ACAACAGG,0.0735
3,CCACAAAG,-0.13
4,AAACGCTT,-0.107
5,CACGTGGA,-0.208
6,CGAGATGA,-0.0477
7,AACTTATG,0.13
8,GACACTTA,0.00132
9,CGCGCACA,0.0288
10,AGCCACAG,-0.278
11,GCCGTGCA,-0.0765
12,CTTTGTCA,-0.133
13,CAGGTCCC,-0.219
14,AGGACCAC,-0.0581
15,AGTCCTTA,0.00187
16,GGCTCCCA,-0.206
17,GGTAAGAA,0.177
18,CGAACATA,0.0707
19,ACTCATAC,0.204
20,ATGCTTCA,-0.123
21,AACGGAAG,-0.209
